Reference: patent publication US20160237132A1 (ALKERMES, published 2016)

B1: RDB1601 (Fc fusion)
chain: MDAMKRGLCCVLLLCGAVFVSARLLDPCGYISPESPVVQLHSNFTAVCVLKEKCMDYFHVNANYIVWKTNHFTIPKEQYTIINRTASSVTFTDIASLNIQLTCNILTFGQLEQNVYGITIISGLPPEKPKNLSCIVNEGKKMRCEWDGGRETHLETNFTLKSEWATHKFADCKAKRDTPTSCTVDYSTVYFVNIEVWVEAENALGKVTSDHINFDPVYKVKPNPPHNLSVINSEELSSILKLTWTNPSIKSVIILKYNIQYRTKDASTWSQIPPEDTASTRSSFTVQDLKPFTEYVFRIRCMKEDGKGYWSDWSEEASGITTGGG[letters of human IgG1 Fc not shown]
B2: RDB1613 (Fc fusion)
chain: LLDPCGYISPESPVVQLHSNFTAVCVLKEKCMDYFHVNANYIVWKTNHFTIPKEQYTIINRTASSVTFTDIASLNIQLTCNILTFGQLEQNVYGITIISGLPPEKPKNLSCIVNEGKKMRCEWDGGRETHLETNFTLKSEWATHKFADCKAKRDTPTSCTVDYSTVYFVNIEVWVEAENALGKVTSDHINFDPVYKVKPNPPHNLSVINSEELSSILKLTWTNPSIKSVIILKYNIQYRTKDASTWSQIPPEDTASTRSSFTVQDLKPFTEYVFRIRCMKEDGKGYWSDWSEEASGITYEDRGGGSGGGASSESSASSDGPHPVITESRASSESSASSDGPHPVITESR[letters of human IgG1 Fc with C220S (EU numbers) not shown]

Target: IL-6 (UniProt P05231 30-212, limits assumed)
Assay: cell-based or functional assay

Sequence of IL-6 (P05231 30-212 limits assumed): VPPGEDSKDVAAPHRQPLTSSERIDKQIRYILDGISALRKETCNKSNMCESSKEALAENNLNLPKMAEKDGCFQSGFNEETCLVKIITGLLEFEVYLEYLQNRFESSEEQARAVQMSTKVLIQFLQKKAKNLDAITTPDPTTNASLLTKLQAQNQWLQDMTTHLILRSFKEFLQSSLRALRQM

| Binder | IC50, inhibition of IL-6-dependent differentiation of M1 cells (percent CD32 positive cells; stimulated with IL-6 and IL-6Ra) | fold potency against RDB1601, inhibition of IL-6-dependent differentiation of M1 cells |
| --- | --- | --- |
| B1 | 20.1 nM | – |
| B2 | 2.5 nM | 8 fold |
